From PMC4336329 (PLoS ONE, 2015) come the findings set out here.

Hit rate of the full screen: of about 310,000 compounds, about 14,000 (4.5%) showed an effect of 50% or more. The effect is printed as a negative number. Some of the results follow.
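Further: peak tail current of the secondary pulse compared with the same well before compound.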

Chain of human ether-à-go-go-related gene (hERG) potassium channel (Q12809 whole entry, looked up): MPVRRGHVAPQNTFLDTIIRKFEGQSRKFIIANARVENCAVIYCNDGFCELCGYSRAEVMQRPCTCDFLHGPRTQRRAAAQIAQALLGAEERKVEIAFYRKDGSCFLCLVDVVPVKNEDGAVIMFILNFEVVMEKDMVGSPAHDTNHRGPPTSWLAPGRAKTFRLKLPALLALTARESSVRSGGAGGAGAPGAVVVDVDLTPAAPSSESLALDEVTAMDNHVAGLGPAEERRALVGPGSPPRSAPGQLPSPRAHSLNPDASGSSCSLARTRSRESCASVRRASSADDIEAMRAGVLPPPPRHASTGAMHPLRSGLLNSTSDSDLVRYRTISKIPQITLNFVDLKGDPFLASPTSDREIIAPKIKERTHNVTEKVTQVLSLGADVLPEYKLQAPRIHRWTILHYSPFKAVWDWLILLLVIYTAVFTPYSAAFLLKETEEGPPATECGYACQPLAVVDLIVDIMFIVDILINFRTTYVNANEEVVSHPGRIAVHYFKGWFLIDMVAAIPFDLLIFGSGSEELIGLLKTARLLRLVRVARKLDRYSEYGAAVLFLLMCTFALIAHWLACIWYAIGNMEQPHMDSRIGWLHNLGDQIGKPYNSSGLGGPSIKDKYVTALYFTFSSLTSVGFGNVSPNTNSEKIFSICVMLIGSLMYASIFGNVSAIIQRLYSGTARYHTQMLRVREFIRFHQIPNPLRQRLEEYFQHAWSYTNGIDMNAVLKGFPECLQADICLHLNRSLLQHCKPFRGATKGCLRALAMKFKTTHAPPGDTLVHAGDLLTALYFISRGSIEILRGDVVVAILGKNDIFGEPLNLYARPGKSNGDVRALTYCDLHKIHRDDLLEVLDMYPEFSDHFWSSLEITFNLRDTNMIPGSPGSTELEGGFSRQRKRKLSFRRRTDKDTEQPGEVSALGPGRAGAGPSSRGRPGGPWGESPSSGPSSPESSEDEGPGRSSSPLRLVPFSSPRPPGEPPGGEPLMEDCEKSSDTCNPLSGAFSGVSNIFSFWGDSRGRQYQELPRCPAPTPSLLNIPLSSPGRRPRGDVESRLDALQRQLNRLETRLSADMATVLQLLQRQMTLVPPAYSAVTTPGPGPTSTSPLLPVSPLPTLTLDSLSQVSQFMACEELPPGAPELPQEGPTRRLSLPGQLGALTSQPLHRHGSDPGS

This assay concerns the target human ether-à-go-go-related gene (hERG) potassium channel (human, UniProt Q12809). Briefly: primary screen, population patch clamp on CHO cells stably expressing hERG.
As for `CN(C)S(=O)(=O)c1cccc(C(=O)OCC(=O)Nc2sccc2C#N)c1`, the “hERG current change (%, negative = inhibition) at 10uM” value is reported as -2.79%.
As for `Clc1ccc(-c2cnc(Oc3ccccc3)nc2)cc1`, the “hERG current change (%, negative = inhibition) at 10uM” value was found to be 1.23%.
As for `O=C(Nc1cccnc1)c1ccc(CSc2ccccc2)cc1`, the “hERG current change (%, negative = inhibition) at 10uM” value stood at 10.1%.
The result for `COc1ccc(CNC(=O)Cn2nc([N+](=O)[O-])c(Br)c2C)cc1OC` reads -10.2%; that for `O=C(O)c1cc(NC(=O)c2ccc(Cl)c([N+](=O)[O-])c2)cc(C(=O)O)c1`, 17.6%.
On to `N#Cc1c(-c2ccccc2)c(-c2ccccc2)nn(CC(=O)NNC(=O)Nc2ccc(Cl)c(Cl)c2)c1=O`, for which the “hERG current change (%, negative = inhibition) at 10uM” value is on record as -1.35%.
Consider `COC(=O)c1ccc(/C=C2/C(=O)Oc3ccccc32)cc1`, for which the “hERG current change (%, negative = inhibition) at 10uM” value worked out at 19.2%.
With `CCOC(=O)C1CCN(c2ccc([N+](=O)[O-])cc2S(=O)(=O)N2CCOCC2)CC1`, the “hERG current change (%, negative = inhibition) at 10uM” value was -44.9%.
Take `COC(=O)C1=C(c2ccc(F)cc2OCc2ccccc2)C[C@@H]2CC[C@H]1N2C(=O)N1CCC(O)CC1`: the “hERG current change (%, negative = inhibition) at 10uM” value was -14.5%.
In the case of `CC(CCc1ccccc1)NC(=O)c1ccc(C(=O)NC(C)CCc2ccccc2)cc1` (stereo not shown), the “hERG current change (%, negative = inhibition) at 10uM” value is recorded as 4.5%.
The result for `CCNc1nc(NCC)nc(N(C#N)CCOc2ccccc2)n1` reads -55.1%.
As for `O=C(CCC(=O)N1CCC2(CC1)OCCO2)Nc1nnc(C(F)(F)F)s1`, the figure is 12.3%.
As for `Cc1cc(-c2csc(NC(=O)c3cccc(S(=O)(=O)N(C)C)c3)n2)c(C)n1-c1ccccc1`, the “hERG current change (%, negative = inhibition) at 10uM” value was found to be 4.36%.
The result for `Cc1c(C(=O)N2CCC[C@H]2C(N)=O)oc2c(F)cccc12` reads 22.2%.
Consider `S=c1[nH]cc(-c2ccccc2)n1-c1ccccc1`, for which the “hERG current change (%, negative = inhibition) at 10uM” value is 17.3%.
With `COC(=O)/C(C#N)=C1/C=Cc2ccccc2N1`, the “hERG current change (%, negative = inhibition) at 10uM” value worked out at 8.35%.
The result for `Cn1c(Cn2cnc([N+](=O)[O-])n2)nnc1SCC(=O)Nc1cccc(Cl)c1` reads -16.2%.
As for `COc1ccc(CCN(C)C2CCCN(S(C)(=O)=O)C2)cc1OC` (stereo not shown), the figure is -4.36%; as for `CCOC(=O)c1[nH]c2ccc(OC)cc2c1NC(=O)CN1CCc2ccccc2C1`, -12.4%.
As for `O=C(OCC(=O)N1CCCCC1)c1cc(NS(=O)(=O)c2ccc(Cl)c([N+](=O)[O-])c2)ccc1O`, the figure is 9.93%.
With `Cc1c(OCC(F)(F)F)ccnc1CSc1nc2ccccc2[nH]1`, the “hERG current change (%, negative = inhibition) at 10uM” value amounted to 20.6%.
As for `COc1ccc2ccc(O)c(CN3CCN(S(=O)(=O)c4cc([N+](=O)[O-])ccc4C)CC3)c2c1`, the figure is -4.29%.
For `Cc1ccc(Nc2c(-c3ccccc3O)nc3ncccn23)cc1`, the “hERG current change (%, negative = inhibition) at 10uM” value turned out to be 8.52%.
As for `Cn1c(O)c(/C=C/C=Nc2ccccc2)c(=O)n(C)c1=S`, the figure is -2.32%; as for `CCN(CC)CCN1C(=O)C(O)=C(C(=O)c2cccs2)C1c1ccc(C)o1` (stereo not shown), 15.7%; as for `O=c1c2c(n3nnnc3n1Cc1ccccc1)-c1ccccc1CC21CCCC1`, 18.8%.
As for `COc1cccc(C(=O)C2CCCN(Cc3cccn3-c3ccccn3)C2)c1` (stereo not shown), the figure is -76.5%; as for `CCn1cc(CNC(=O)c2cc(-c3cc(OC)ccc3OC)nc3ccccc23)c(C)n1`, -53.9%.
The result for `COc1ccccc1N1CCN(C(=O)c2ccc(Cn3c(=O)[nH]c4ccsc4c3=O)cc2)CC1` reads 8.62%; that for `CCN(c1ccccc1)S(=O)(=O)c1cc2c(cc1C)NC(=O)CO2`, 4.21%.
For the compound `Cc1ccn2c(C(=O)CSc3ccccc3Cl)c(C)nc2c1`, the “hERG current change (%, negative = inhibition) at 10uM” value turned out to be 7.33%.
Regarding `COc1ccccc1N1CCN(C(=O)CCNC(=O)c2ccco2)CC1`, the “hERG current change (%, negative = inhibition) at 10uM” value came to 3.06%.
As for `Cc1ccc(NC(=O)CN2C(=O)NC3(CCCC3)C2=O)nc1`, the figure is -6.77%; as for `O=C(OCC(=O)N1CCCc2ccccc21)c1cccc(C(F)(F)F)c1`, -6.7%; as for `Cc1sc2nc(COC(=O)c3cccc(S(=O)(=O)N(C)c4ccccc4)c3)[nH]c(=O)c2c1C`, 14.3%.
As for `COc1ccc(Cn2c(C3CC3)nc3ccc(NC(C)=O)cc3c2=O)cc1`, the figure is 11.9%; as for `COc1ccc(C)cc1NC(=O)c1nnn(Cc2cccc(C(F)(F)F)c2)c1N`, 11.9%.
The result for `C/C(=N\OC(=O)c1ccc(C)cc1)c1c(C)nc2cc(C)ccn12` reads 27.5%.
As for `Clc1ccc(-c2noc(CCCOc3ccccc3)n2)cc1`, the “hERG current change (%, negative = inhibition) at 10uM” value came out at 11.5%.
As for `O=C(c1ccc2ccccc2c1)C1CCCN(C(=O)c2noc3c2CCCC3)C1` (stereo not shown), the figure is -0.959%; as for `CCc1ccc(CN2C(=O)c3ccccc3C2C(=O)NC(C)CC)cc1` (stereo not shown), 6.42%; as for `Cc1onc(-c2c(F)cccc2Cl)c1C(N)=S`, 16.8%.
As for `COc1cc(/C=C/C(=O)O)cc(S(=O)(=O)N2CCN(S(=O)(=O)c3ccc(Cl)cc3)CC2)c1OC`, the figure is 26.2%.
